# Assay results published in US11530237B2, “Compositions and methods for treating CNS disorders” (Sage Therapeutics, Inc., priority 2014, dated 2022).
# At least one compound was matched to its structure with a doubt left.
# Molecular target: [35S]-TBPS binding, rat brain cortical membranes
# Test: Steroid inhibition of TBPS binding ([35S]-TBPS radioligand displacement)
# Details: 3 nM [35S]-TBPS, 5 μM GABA
row,Compound,IC50 [µM]
1,C[C@@]1(O)CC[C@@]2(C)[C@@H](CC[C@@H]3[C@@H]2CC[C@]2(C)[C@@H](C(=O)Cn4ncc5ccc(Cl)cc54)CC[C@@H]32)C1 [Compound 251],0.01 to 0.05
2,C[C@@]1(O)CC[C@@]2(C)[C@@H](CC[C@@H]3[C@@H]2CC[C@]2(C)[C@@H](C(=O)Cn4cc5cc(Cl)ccc5n4)CC[C@@H]32)C1 [Compound 252],0.01 to 0.05
3,C[C@@]1(O)CC[C@@]2(C)[C@@H](CC[C@@H]3[C@@H]2CC[C@]2(C)[C@@H](C(=O)Cn4ncc5cc(Cl)ccc54)CC[C@@H]32)C1 [Compound 253],0.01 to 0.05
4,COc1ccc(CC(=O)[C@H]2CC[C@H]3[C@@H]4CC[C@@H]5C[C@](C)(O)CC[C@]5(C)[C@H]4CC[C@]23C)cc1 [Compound 255],0.01 to 0.05
5,C[C@@]1(O)CC[C@@]2(C)[C@H](CC[C@@H]3[C@@H]2CC[C@]2(C)[C@@H](C(=O)Cc4ccccc4)CC[C@@H]32)C1 [Compound 256],0.01 to 0.05
6,C[C@@]1(O)CC[C@@]2(C)[C@@H](CC[C@@H]3[C@@H]2CC[C@]2(C)[C@@H](C(=O)Cc4ccccc4F)CC[C@@H]32)C1 [Compound 258],0.05 to 0.1
7,C[C@@]1(O)CC[C@@]2(C)[C@H](CC[C@@H]3[C@@H]2CC[C@]2(C)[C@@H](C(=O)Cn4cnc(F)c4)CC[C@@H]32)C1 [Compound 259],< 0.01
8,CCCN(C)C(=O)c1cnn(CC(=O)[C@H]2CC[C@H]3[C@@H]4CC[C@@H]5C[C@](C)(O)CC[C@]5(C)[C@H]4CC[C@]23C)n1 [Compound 260],< 0.01
9,CC(C)N(C)C(=O)c1cnn(CC(=O)[C@H]2CC[C@H]3[C@@H]4CC[C@@H]5C[C@](C)(O)CC[C@]5(C)[C@H]4CC[C@]23C)n1 [Compound 261],0.01 to 0.05
10,CC(C)(C)NC(=O)c1cnn(CC(=O)[C@H]2CC[C@H]3[C@@H]4CC[C@@H]5C[C@](C)(O)CC[C@]5(C)[C@H]4CC[C@]23C)n1 [Compound 262],0.01 to 0.05
11,C[C@@]1(O)CC[C@@]2(C)[C@H](CC[C@@H]3[C@@H]2CC[C@]2(C)[C@@H](C(=O)Cn4ncc(C(=O)N5CCC5)n4)CC[C@@H]32)C1 [Compound 263],0.01 to 0.05
